# The other results are listed elsewhere or left out.
# B1: TREM-2 (Mus musculus), Q99NH8 (protein)
# chain: MGPLHQFLLLLITALSQALNTTVLQGMAGQSLRVSCTYDALKHWGRRKAWCRQLGEEGPCQRVVSTHGVWLLAFLKKRNGSTVIADDTLAGTVTITLKNLQAGDAGLYQCQSLRGREAEVLQKVLVEVLEDPLDDQDAGDLWVPEESSSFEGAQVEHSTSRNQETSFPPTSILLLLACVLLSKFLAASILWAVARGRQKPGTPVVRGLDCGQDAGHQLQILTGPGGT
# What was measured:
# Assay in all cases: glycan array binding signal (z-score within array); higher = stronger binding
# Settings in all cases: glycan notation: IUPAC condensed, linker removed
# [1] = target: GlcNAc(b1-3)Gal(b1-4)GlcNAc
# How it was run: (§1)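 Glycan array data came from 3228 arrays in the Consortium for Functional Glycomics database, and only arrays with an available protein sequence were kept. Glycan names were put into IUPAC-condensed notation, and columns mapping to the same glycan were averaged. The binding signal is a within-array Z-score, averaged across arrays of one protein sequence run at different concentrations or buffers and across linkers. A negative Z-score can be read as non-binding.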
# [2] = target: GlcNAc(b1-3)Gal(b1-4)GlcNAc(b1-3)Gal(b1-4)GlcNAc
# How it was run: as §1
# GlcNAc(b1-3)GalNAc = target: GlcNAc(b1-3)GalNAc
# How it was run: as §1
# [3] = target: GlcNAc(b1-3)[GlcNAc(b1-6)]Gal(b1-4)GlcNAc
# How it was run: as §1
# [4] = target: GlcNAc(b1-3)[GlcNAc(b1-6)]GalNAc
# How it was run: as §1
# [5] = target: GlcNAc(b1-3)[GlcNAc(b1-6)]GlcNAc(b1-4)GlcNAc
# How it was run: as §1
# [6] = target: GlcNAc(b1-4)Gal(b1-4)GlcNAc
# How it was run: as §1
# [7] = target: GlcNAc(b1-4)GlcNAc(b1-4)GlcNAc
# How it was run: as §1
# [8] = target: GlcNAc(b1-4)GlcNAc(b1-4)GlcNAc(b1-4)GlcNAc(b1-4)GlcNAc
# How it was run: as §1
# [9] = target: GlcNAc(b1-4)GlcNAc(b1-4)GlcNAc(b1-4)GlcNAc(b1-4)GlcNAc(b1-4)GlcNAc
# How it was run: as §1
# [10] = target: GlcNAc(b1-4)[GlcNAc(b1-6)]GalNAc
# How it was run: as §1
# [11] = target: GlcNAc(b1-6)Gal(b1-4)GlcNAc
# How it was run: as §1
# GlcNAc(b1-6)GalNAc = target: GlcNAc(b1-6)GalNAc
# How it was run: as §1
# Kdn(a2-3)Gal(b1-3)GlcNAc = target: Kdn(a2-3)Gal(b1-3)GlcNAc
# How it was run: as §1
# Kdn(a2-3)Gal(b1-4)GlcNAc = target: Kdn(a2-3)Gal(b1-4)GlcNAc
# How it was run: as §1
# [12] = target: Man(a1-2)Man(a1-2)Man(a1-3)Man
# How it was run: as §1
# [13] = target: Man(a1-2)Man(a1-2)Man(a1-6)[Man(a1-3)]Man
# How it was run: as §1
# Man(a1-2)Man(a1-3)Man = target: Man(a1-2)Man(a1-3)Man
# How it was run: as §1
# [14] = target: Man(a1-2)Man(a1-3)[Man(a1-2)Man(a1-6)]Man
# How it was run: as §1
# [15] = target: Man(a1-2)Man(a1-3)[Man(a1-2)Man(a1-6)]Man(a1-6)[Man(a1-2)Man(a1-2)Man(a1-3)]Man(b1-4)GlcNAc(b1-4)GlcNAc
# How it was run: as §1
# [16] = target: Man(a1-2)Man(a1-3)[Man(a1-6)]Man(a1-6)[Man(a1-2)Man(a1-3)]Man(b1-4)GlcNAc(b1-4)GlcNAc
# How it was run: as §1
# [17] = target: Man(a1-2)Man(a1-6)[Man(a1-3)]Man(a1-6)[Man(a1-2)Man(a1-2)Man(a1-3)]Man(b1-4)GlcNAc(b1-4)GlcNAc
# How it was run: as §1
# Man(a1-3)[Man(a1-6)]Man = target: Man(a1-3)[Man(a1-6)]Man
# How it was run: as §1
# [18] = target: Man(a1-3)[Man(a1-6)]Man(a1-6)[Man(a1-2)Man(a1-3)]Man(b1-4)GlcNAc(b1-4)GlcNAc
# How it was run: as §1
# [19] = target: Man(a1-3)[Man(a1-6)]Man(a1-6)[Man(a1-3)]Man(b1-4)GlcNAc(b1-4)GlcNAc
# How it was run: as §1
# [20] = target: Man(a1-3)[Man(a1-6)]Man(b1-4)GlcNAc(b1-4)GlcNAc
# How it was run: as §1
# Man(b1-4)GlcNAc = target: Man(b1-4)GlcNAc
# How it was run: as §1
# Neu5Ac(a2-3)Gal = target: Neu5Ac(a2-3)Gal
# How it was run: as §1
# [21] = target: Neu5Ac(a2-3)Gal(b1-3)GalNAc
# How it was run: as §1
# [22] = target: Neu5Ac(a2-3)Gal(b1-3)GalNAc(b1-3)Gal(a1-4)Gal(b1-4)Glc
# How it was run: as §1
# [23] = target: Neu5Ac(a2-3)Gal(b1-3)GalNAc(b1-3)Gal(b1-4)GlcNAc
# How it was run: as §1
# [24] = target: Neu5Ac(a2-3)Gal(b1-3)GalNAc(b1-4)[Neu5Ac(a2-3)]Gal(b1-4)Glc
# How it was run: as §1
# [25] = target: Neu5Ac(a2-3)Gal(b1-3)GalNAc6S
# How it was run: as §1
# [26] = target: Neu5Ac(a2-3)Gal(b1-3)GlcNAc
# How it was run: as §1
# [27] = target: Neu5Ac(a2-3)Gal(b1-3)GlcNAc6S
# How it was run: as §1
# [28] = target: Neu5Ac(a2-3)Gal(b1-3)[Fuc(a1-4)]GlcNAc
# How it was run: as §1
# [29] = target: Neu5Ac(a2-3)Gal(b1-3)[Fuc(a1-4)]GlcNAc(b1-3)Gal(b1-4)[Fuc(a1-3)]GlcNAc
# How it was run: as §1
# [30] = target: Neu5Ac(a2-3)Gal(b1-3)[Neu5Ac(a2-3)Gal(b1-4)]GlcNAc
# How it was run: as §1
binder,measurement,setting,value
B1,glycan array binding signal (z-score),[1],0.568
same,glycan array binding signal (z-score),[2],-0.296
same,glycan array binding signal (z-score),GlcNAc(b1-3)GalNAc,-0.464
same,glycan array binding signal (z-score),[3],-0.396
same,glycan array binding signal (z-score),[4],-0.337
same,glycan array binding signal (z-score),[5],-0.391
same,glycan array binding signal (z-score),[6],-0.413
same,glycan array binding signal (z-score),[7],-0.39
same,glycan array binding signal (z-score),[8],-0.348
same,glycan array binding signal (z-score),[9],-0.251
same,glycan array binding signal (z-score),[10],-0.383
same,glycan array binding signal (z-score),[11],-0.382
same,glycan array binding signal (z-score),GlcNAc(b1-6)GalNAc,-0.493
same,glycan array binding signal (z-score),Kdn(a2-3)Gal(b1-3)GlcNAc,-0.274
same,glycan array binding signal (z-score),Kdn(a2-3)Gal(b1-4)GlcNAc,-0.376
same,glycan array binding signal (z-score),[12],-0.305
same,glycan array binding signal (z-score),[13],-0.263
same,glycan array binding signal (z-score),Man(a1-2)Man(a1-3)Man,-0.367
same,glycan array binding signal (z-score),[14],-0.326
same,glycan array binding signal (z-score),[15],-0.321
same,glycan array binding signal (z-score),[16],-0.255
same,glycan array binding signal (z-score),[17],-0.114
same,glycan array binding signal (z-score),Man(a1-3)[Man(a1-6)]Man,-0.332
same,glycan array binding signal (z-score),[18],-0.168
same,glycan array binding signal (z-score),[19],-0.131
same,glycan array binding signal (z-score),[20],-0.261
same,glycan array binding signal (z-score),Man(b1-4)GlcNAc,-0.217
same,glycan array binding signal (z-score),Neu5Ac(a2-3)Gal,-0.303
same,glycan array binding signal (z-score),[21],-0.209
same,glycan array binding signal (z-score),[22],-0.359
same,glycan array binding signal (z-score),[23],-0.209
same,glycan array binding signal (z-score),[24],-0.368
same,glycan array binding signal (z-score),[25],0.919
same,glycan array binding signal (z-score),[26],-0.319
same,glycan array binding signal (z-score),[27],-0.078
same,glycan array binding signal (z-score),[28],-0.351
same,glycan array binding signal (z-score),[29],0.087
same,glycan array binding signal (z-score),[30],-0.316
